# Columns and labels:
# IFITM1 = type: cell-based; details: human macrophages; data not shown
# [1] = system: TNF, IL-1β, IL-2, IL-4, IL-6, IL-8, IL-10, and IFN-γ; assay: Cytokine levels in human PBMC supernatants by Luminex assay; details: 72 hrs
# Experimental: FIG. 4 is a set of graphs showing that human PBMC were treated with NTZ at the indicated concentrations for 72 hrs and cellular supernatants were analyzed by Luminex assay to quantitate cytokine levels. […] Means of two donors and SEM are shown.
# A549 cells = assay: Stress granule formation in A549 cells (anti-G3BP1 staining); details: 40 μM NTZ, 4 hrs
# Experimental: (§1) FIGS. 18A-18C NTZ treatment leads to stress granule formation. (FIG. 18A) NTZ induces stress granule formation in A549 cells. A549 cells were mock-treated or treated with sodium arsenite (0.5 μM) for 1 hr or NTZ (40 μM) for 4 hrs. Stress granules were detected after fixation and permeabilization with Rb anti-G3BP1 and DyLight-594-anti-Rb IgG antibodies. (FIG. 18B) GADD34 transcription is induced by NTZ in A549 cells. A549 cells were treated with NTZ (40 μM) for the indicated lengths of time. RNA was then extracted and after oligoDT-based cDNA synthesis, GADD34 mRNA levels were measured by qPCR and normalized to cyclophilin B mRNA levels. Mean and SD of 3 independent experiments; *=p<0.05. (FIG. 18C) NTZ treatment of THP-1 cells results in increased cellular acidification. THP-1 cells were treated for 24 hrs with the indicated concentrations of NTZ (or IFN-beta as a positive control) and then stained with Lysotracker Red and analyzed by flow cytometry.
# GADD34 = GADD34 mRNA by qPCR in A549 cells; details: 40 μM NTZ
# Experimental: as §1
# SAMHD1 = details: MDM, 3 or 24 hours
# Cryptosporidium parvum = details: gerbils; cited from earlier work
SMILES,IFITM1 gene expression (IFITM1),"TNF, IL-2, IL-4, IL-8, IL-10, and IFN-γ levels [1]",expression and release of IL-6 [1],expression and release of IL-β [1],stress granule formation (A549 cells),GADD34 mRNA expression (GADD34),SAMHD1 gene expression (SAMHD1),activity against Cryptosporidium parvum infection compared to NTZ (Cryptosporidium parvum)
"CC(=O)Oc1ccccc1C(=O)Nc1ncc([N+](=O)[O-])s1 [NTZ, [2-[(5-nitro-1,3-thiazol-2-yl)carbamoyl]phenyl] ethanoate]",induces,not affected,induces,induces,formation of stress granules was detected,significant induction,enhances,–
CC(=O)Oc1ccccc1C(=O)Nc1ncc(Cl)s1 [RM-5038],–,–,–,–,–,–,–,improved activity

# From patent US10765664B2, “Treatment of infectious diseases” (CHILDREN'S MEDICAL CENTER CORPORATION, priority 2015, dated 2020)
